Some of the results follow.

This test deals with T1, OsWOX13 (Oryza sativa, UniProt Q5QMM3 1-267).
T1 sequence: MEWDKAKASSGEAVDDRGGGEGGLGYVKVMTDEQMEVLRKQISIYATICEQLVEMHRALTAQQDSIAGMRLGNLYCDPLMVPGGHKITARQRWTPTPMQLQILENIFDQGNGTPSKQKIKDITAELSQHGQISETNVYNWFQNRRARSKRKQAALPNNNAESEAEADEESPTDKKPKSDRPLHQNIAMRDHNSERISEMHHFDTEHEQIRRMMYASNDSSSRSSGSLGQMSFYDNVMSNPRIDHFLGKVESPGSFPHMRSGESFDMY
As to the kind of experiment: protein-binding microarray (RPBM); PBS, 2% BSA, 51.3 ng/ul salmon testes DNA, 50 uM zinc acetate, 200 nM TF, 25 C, 1 h; high values mean tight binding. The conditions noted are these: protein: recombinant; tags: N-terminal polyhistidine and DsRed monomer fusion (pET32a); label: CyDye5-dUTP incorporated in the synthesized complementary strand; 3' TTTTT single-stranded linker to array surface; dsDNA, one strand shown. In outline: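 Transcription factors were made in E. coli BL21-CodonPlus as N-terminal fusions to a polyhistidine tag and DsRed, then purified on Ni–NTA. After primer extension with Cy5-dUTP and blocking with 2% BSA, a custom Agilent array was exposed for 1 h at 25 °C to 200 nM protein in PBS, 2% BSA, salmon testes DNA and 50 µM zinc acetate. Washed arrays were scanned on an Axon 4000B, and the binding signal is per-feature fluorescence intensity in arbitrary units.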
Consider “TCAATCACATGATTGATACTGGTGTACCTCCGGACACAGCCGGAGTCACCTAGTGCAG”, for which the binding signal was 46300 fluorescence intensity (a.u.).

Take “CTATTTCTATAAATTGATCATTTGGGCACTCAATTGTTTCCGGAGTCACCTAGTGCAG”: the binding signal was 11900 fluorescence intensity (a.u.).

On to “TTATACGAGTGACAGATGGCAAATCAGGAAGTGATTAGGACGGAGTCACCTAGTGCAG”, for which the binding signal is 4270 fluorescence intensity (a.u.).

Regarding “CCTGCTATGATTTATGGACAAGATACATTGCGTTCTCACTCGGAGTCACCTAGTGCAG”, the binding signal is 7850 fluorescence intensity (a.u.).

On to “TTTGACATGGAAACTCATAACTGCGTTTAAAATAGGATGGCGGAGTCACCTAGTGCAG”, for which the binding signal was 8720 fluorescence intensity (a.u.).

Consider “GAAATTGGAGATGATGTGACTGAAAAGTTGTGAGTGTATGCGGAGTCACCTAGTGCAG”, for which the binding signal was 13100 fluorescence intensity (a.u.).

Regarding “ATCACGTGATTAAAACAGTAATTATCGAGCACGGAAGGAACGGAGTCACCTAGTGCAG”, the binding signal is 31200 fluorescence intensity (a.u.).

As for “CGCAATTAGACAAAACAAATCACACTCGCTTCGCTAATCGCGGAGTCACCTAGTGCAG”, the binding signal is 22400 fluorescence intensity (a.u.).

Consider “ACATATAATTATAATTGAATGGGTTATGTTTCATTTGTATCGGAGTCACCTAGTGCAG”, for which the binding signal was 35900 fluorescence intensity (a.u.).

For “CTATTCAAATCAGGCCCATTAATTTTGTCACTTTCTCTATCGGAGTCACCTAGTGCAG”, the binding signal is 9970 fluorescence intensity (a.u.).

Take “GAAAATAGACCTAATCAAATGTAAAACAGTGGTAAATGTACGGAGTCACCTAGTGCAG”: the binding signal was 4980 fluorescence intensity (a.u.).

For “GGCGATTGAATTGGATGCCTTGAATCTCTCCCAAGGGGTCCGGAGTCACCTAGTGCAG”, the binding signal was 8250 fluorescence intensity (a.u.).

Turning to “AAACGATAATTATGTTCAATTATAATAAAGAGAGGAGACGCGGAGTCACCTAGTGCAG”, the binding signal is 34200 fluorescence intensity (a.u.).

Turning to “GCCTGATTGTCGAATCCTGTTCTGCATGTGCCACTGCAGACGGAGTCACCTAGTGCAG”, the binding signal was 41700 fluorescence intensity (a.u.).

Regarding “ATTTAATTATTTCACTAATATAATAATGCCAAAATTTTGACGGAGTCACCTAGTGCAG”, the binding signal was 21400 fluorescence intensity (a.u.).

In the case of “GGCTGAGGGAGGTAATTTAGTTAGCAACAAGAGATAAGGGCGGAGTCACCTAGTGCAG”, the binding signal was 7600 fluorescence intensity (a.u.).

On to “AGCCGATTGGTTGTTCATTGCCTTGCAGAAAGTCAGAAGCCGGAGTCACCTAGTGCAG”, for which the binding signal is 6560 fluorescence intensity (a.u.).

As for “CCATGTGATTTGTTCCTTGGCTCTTCCACTCTCTAGCTCCCGGAGTCACCTAGTGCAG”, the binding signal is 30700 fluorescence intensity (a.u.).

Regarding “TAATTAAGATAATTTCTTCGGGCAATTTATTTAACCAATTCGGAGTCACCTAGTGCAG”, the binding signal was 3900 fluorescence intensity (a.u.).

For the sequence “TATTAAGAATTAGATTAGGATTAGGATTGTGTCAATGTTCCGGAGTCACCTAGTGCAG”, the binding signal is 4860 fluorescence intensity (a.u.).

In the case of “TCCATTGATTGAGGAATAGTGCCAGCTTTAGATTTGCTCCCGGAGTCACCTAGTGCAG”, the binding signal is 53400 fluorescence intensity (a.u.).

As for “GCATTCTTGATAGACAGCTGAACAACTGGACTATCCAGTGCGGAGTCACCTAGTGCAG”, the binding signal was 14100 fluorescence intensity (a.u.).

In the case of “ATCTTAAACTTCGTAAACTGGGATTTTCAGAAGCACTGTGCGGAGTCACCTAGTGCAG”, the binding signal was 3350 fluorescence intensity (a.u.).

The record behind these values is PMC7819943, “Rice protein-binding microarrays: a tool to detect cis-acting elements near promoter regions in rice”.
